# PubChem BioAssay AID1508642 (National Center for Advancing Translational Sciences (NCATS), 2021)
# The whole screen tested about 43,000 compounds, of which about 200 (0.47%) were called active. Roughly 12% stayed inconclusive and do not appear here. The call rests on the fitted dose curve; in most records, active means well fitted cell-killing curve with a large enough effect; inconclusive means small, poorly fitted or top-dose-only effect, or effect the other way; inactive means flat fitted curve, though single readings scatter. This is one part of the list.
# Experiment: Cell viability qHTS assay in S16 Pmp22-F2sN cells; further: nearly all actives have a fitted effect of over 65% in size
# Details: S16 Pmp22-F2sN Schwann cells viability, CellTiter-Glo, 24 h; series mostly up to 57.5 µM; activity change, negative = cytotoxicity: at the top concentration
# How it was run: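 S16 Pmp22-F2sN Schwann cells (500-1,000/well) in phenol-red-free DMEM with 10% FBS received 23 nL compound by pin tool for 24 h at 37 °C. Viability was then read as CellTiter-Glo luminescence after 15 min at room temperature.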
# On the % scale 0 is the no-effect control and ±100 the full control effect.
row,SMILES,"activity change, negative = cytotoxicity"
1,Cc1ccc(NC(=O)C2Cc3ccccc3N2C(=O)c2ccccc2)cc1Cl (centres undefined),inactive: -25.4%
2,Cc1cc(C)c(S(=O)(=O)NCCc2cc3c(C)ccc(C)c3[nH]c2=O)c(C)c1,inactive: 8.55%
3,Brc1ccc(-c2ccc(CNCCSc3nnnn3-c3ccccc3)o2)cc1,inactive: 4.97%
4,O=C(NC1CC(=O)N(c2ccccc2)C1)c1ccc(S(=O)(=O)N2CCOCC2)cc1 (centres undefined),inactive: 1.21%
5,CCOc1ccc(-n2nc(CO)c(C(=O)NCc3ccc(Cl)cc3)n2)cc1,inactive: 0.0054%
6,CC1CCN(C(=O)CSc2c3c(nc4cc(Cl)ccc24)CCCC3)CC1,inactive: -1.12%
7,Cc1ccc(-c2nnc(SCCOc3ccccc3)o2)cc1,inactive: -5.54%
8,c1ccc(-c2cn(-c3ccccc3)c3ncnc(N4CCN(c5ccccc5)CC4)c23)cc1,inactive: -5.83%
9,COc1ccc(OC)c(NC(=O)CSc2n[nH]c(-c3ccccc3Cl)n2)c1,inactive: -2.66%
10,Cc1cc(C)cc(Oc2c(C(F)(F)F)oc3c(CN4CCCC(C)C4)c(O)ccc3c2=O)c1 (centres undefined),inactive: -0.63%
11,COc1ccccc1N1CCN(c2ccc3cc(S(=O)(=O)N4CCCCC4)ccc3n2)CC1,inactive: -1.72%
12,CCOC(=O)CC(NC(=O)c1cc2cc(Cl)ccc2oc1=O)c1ccc(C)cc1 (centres undefined),inactive: 2.79%
13,O=S1(=O)c2ccccc2N(Cc2ccc(Cl)cc2F)c2ccccc21,inactive: -17.9%
14,CN(C)S(=O)(=O)c1ccc2c(c1)c(=O)c(C(=O)N1CCN(c3cccc(Cl)c3)CC1)cn2C,inactive: 1.73%
15,COc1ccc(OC)c(NC(=O)CSC2=Nc3ccccc3C3=NC(CCC(=O)NCc4ccco4)C(=O)N23)c1 (centres undefined),inactive: 8.88%
16,CCC(=O)Nc1nnc(S(=O)(=O)N(C)Cc2ccc(Cl)cc2)s1,inactive: 11.8%
17,CCOC(=O)c1ccc(NC(=O)CN(c2ccc(C)cc2)S(=O)(=O)c2ccc(OC)cc2)cc1,inactive: -1.63%
18,CCC(Sc1nc2cc(OC)c(OC)cc2c(=O)n1Cc1ccc(Cl)cc1)C(=O)NCCOC (centres undefined),inactive: 12.3%
19,Cc1cc(NC(=O)c2cccnc2)cc(-c2nc3cc(Cl)ccc3o2)c1O,inactive: 0.582%
20,CCOc1ccc(-c2nc3c(c(SCC(=O)N4CCCCC4)n2)Cc2cc(C)ccc2O3)cc1,inactive: 6.61%
21,COc1ccc(N2CCN(CCCNC(=O)Nc3ccccc3Cl)CC2)cc1,inactive: -6.55%
22,COc1ccc(CCNC(=O)CN(c2ccc(C)cc2)S(=O)(=O)c2ccc(OC)cc2)cc1,inactive: 14.5%
23,N#Cc1ccccc1CSc1nnc(-c2ccccc2)o1,inactive: 13%
24,COc1cc(C(=O)Nc2ccc(OCc3cc(=O)n4ccc(C)cc4n3)cc2)cc(OC)c1OC,inactive: 0.192%

row,SMILES,"activity change, negative = cytotoxicity"
1,COc1cc(Nc2ncnc3onc(-c4ccc(Cl)cc4)c23)cc(OC)c1,inactive: -2.01%
2,Cc1ccc(-n2c(=O)c3c(C)c(C)sc3n(CC(=O)c3ccc(Cl)cc3)c2=O)cc1C,inactive: 7.72%
3,Cc1cccc(N2CCN(S(=O)(=O)c3c(C)[nH]c(=O)[nH]c3=O)CC2)c1C,inactive: 9.17%
4,O=C(Cn1c(=O)n(Cc2ccc(F)cc2)c(=O)c2sc3ccccc3c21)NCc1ccccc1Cl,inactive: -1.65%
5,Cc1ccn2c(Nc3ccc4c(c3)OCO4)c(-c3ccco3)nc2c1,inactive: -0.316%
6,N#Cc1c(C(F)(F)F)cc(-c2cccs2)nc1SCC(=O)Nc1ccc(Cl)cc1,inactive: -4.56%
7,Cc1ccc(CCNc2nc3ccccc3c3nc(-c4ccccc4)nn23)cc1,inactive: -9.76%
8,Cc1oc(-c2ccc(Cl)cc2)nc1CSc1nnc(C)n2c1cc1sccc12,inactive: 12.4%
9,O=C1CN(C(=O)c2ccccc2)C(c2ccc(F)cc2)c2cc(Br)ccc2N1 (centres undefined),inactive: -0.879%
10,CCc1cccc(C)c1NC(=O)Nc1csc2c1CCCC2,inactive: -1.69%
11,COc1ccc2sc(N(Cc3cccnc3)C(=O)c3ccco3)nc2c1,inactive: 9.33%
12,Cc1ccc(C)c(NC(=O)CSc2nncn3c2cc2sccc23)c1,inactive: 22%
13,CCOC(=O)c1ccc(N2C(=O)c3[nH]nc(-c4ccc(OC)cc4)c3C2c2ccc(C)cc2)cc1 (centres undefined),inactive: -20.1%
14,CCCNC(=O)C1CCN(c2cc(C)nc3c(-c4ccc(OC)c(OC)c4)c(C)nn23)CC1,inactive: 13.1%
15,COc1ccc(CN2C(=O)N(c3ccc(F)cc3)C(=O)C2CC(=O)Nc2ccccc2)cc1 (centres undefined),inactive: 3.19%
16,CCOc1ccc(N2CC(c3nc4ccccc4n3CCC3CCCCC3)CC2=O)cc1 (centres undefined),inactive: -28.9%
17,COC(=O)c1cc(NC(=O)Cn2ncc3c2-c2ccccc2OC3)cc(C(=O)OC)c1,inactive: 10.1%
18,COc1ccc(-c2noc(-c3ccc(NC4CCCCC4)c([N+](=O)[O-])c3)n2)cc1OC,inactive: 15.8%
19,O=C(NCCc1c[nH]c2ccccc12)Nc1ccccc1C(F)(F)F,inactive: -3.76%
20,COc1ccc(NC(=O)CSc2nc3c(c(=O)[nH]2)CN(Cc2ccccc2)CC3)cc1Cl,inactive: -11.1%
21,CCc1ccc(NC(=O)Cn2c(=O)n(Cc3ccccc3)c(=O)c3oc4ccccc4c32)cc1,inactive: 5.37%
22,COC(=O)c1ccccc1NC(=O)CN1C(=O)COc2ccccc21,inactive: 9.67%
23,Cc1ncc(CO)c2c1Oc1nc(-c3ccccc3F)nc(SCC(=O)N3CCCCC3)c1C2,inactive: -13.8%
24,CCOc1cc(C(=O)Nc2c(NC)c3ccccc3oc2=O)cc(OCC)c1OCC,inactive: 8.79%

row,SMILES,"activity change, negative = cytotoxicity"
1,CCc1ccc(NC(=O)c2cnn(-c3c(C)cccc3C)c2C2CCNCC2)cc1,inactive: -28.2%
2,Cc1ccc(S(=O)(=O)c2cn(C)c3cc(N4CCCC4)c(F)cc3c2=O)c(C)c1,inactive: -9.96%
3,Cc1ccc(N2CCN(C(=O)CCc3c(C)nc4ncnn4c3C)CC2)c(C)c1,inactive: -0.0383%
4,Cc1cc(C)c(C#N)c(SCC(=O)Nc2ccccc2C#N)n1,inactive: 13.4%
5,Cc1ccc(C)c(CN2C(=O)c3ccccc3Sc3ccc(C(=O)NC4CCCC4)cc32)c1,inactive: -13%
6,Cc1ccc(-n2ncc(C(=O)N3CCc4ccccc4C3)c2C2CCN(C(=O)OC(C)(C)C)CC2)cc1C,inactive: -1.32%
7,CCn1cc(C(=O)NCCc2ccc(OC)c(OC)c2)c(=O)c2cc(S(=O)(=O)N3CCc4ccccc4C3)ccc21,inactive: -20.4%
8,COc1cccc(CNC(=O)CSc2ncc(S(=O)(=O)c3ccc(C)c(Cl)c3)c(=O)[nH]2)c1,inactive: 0.0837%
9,CC(C)(C)C(=O)OCc1cc(=O)n2nc(C3CCCCC3)sc2n1,inactive: 19.1%
10,COc1ccc(-c2nc(CN3CCC(C(=O)NCCN(CC(C)C)CC(C)C)CC3)c(C)o2)cc1OC,inactive: -2.77%
11,COc1ccccc1-c1noc(-c2ccc(NCCc3ccccc3)c([N+](=O)[O-])c2)n1,inactive: -2.63%
12,CNC(=O)c1ccc(NC(=O)c2nsc3ccccc23)cc1,inactive: -24.2%
13,CCOC(=O)c1ccc(NC(=O)Cn2nnc(-c3ccc(C(F)(F)F)cc3)n2)cc1,inactive: 20.1%
14,COc1ccc2c(c1)c(N1CCCC1=O)c(C(=O)Nc1ccc(Cl)cc1C)n2C,inactive: -10.2%
15,CCN1Cc2cccc(C(=O)Nc3ccc(F)cc3)c2C1=O,inactive: 9.47%
16,CCOC(=O)c1ccc(OCC2c3cc(OC)c(OC)cc3CCN2C(=O)Cc2ccc(OC)c(OC)c2)cc1 (centres undefined),inactive: -3.67%
17,CCCCNC(=O)c1ccc(-c2nc(CS(=O)(=O)c3ccc(C)cc3)c(C)o2)cc1,inactive: -3.5%
18,Cc1ccc(N2CC(c3nnc(Cc4ccc(F)cc4Cl)o3)CC2=O)cc1 (centres undefined),inactive: 4.42%
19,COC(=O)CNC(c1ccccc1)c1cc(Br)ccc1NC(=O)c1cc(OC)c(OC)c(OC)c1 (centres undefined),inactive: -7.64%
20,CC1=C(c2ccc(Cl)cc2)S(=O)(=O)N=C1N1CCN(c2cccc(C)c2)C(C)C1 (centres undefined),inactive: 4.52%
21,CCOC(=O)c1c(-c2ccc(C)cc2)csc1NC(=O)c1ccc(C(C)(C)C)cc1,inactive: 14.1%
22,CCc1ccc(NC(=O)CCS(=O)(=O)c2ccc3c(c2)oc(=O)n3C)cc1,inactive: 5.73%
23,COC(=O)c1ccc(OC)c(Cn2c(=O)n(-c3cccc(Cl)c3)c(=O)c3c2c2cc(C)ccc2n3C)c1,inactive: 14%
24,COc1ccc(CCNC(=O)CCCn2c(=O)c3ccccc3n(CC(=O)Nc3c(C)cc(C)cc3C)c2=O)cc1OC,inactive: 13.9%

row,SMILES,"activity change, negative = cytotoxicity"
1,CCOc1ccc(NC(=O)Cn2cnc3nc4c(cc3c2=O)CCCC4)cc1,inactive: -8.39%
2,COc1ccc(-c2cc(C)no2)cc1S(=O)(=O)Nc1cccc(C(F)(F)F)c1,inactive: -5.87%
3,Cc1c(CCNC(=O)c2ccc(C(F)(F)F)cc2)sc2nc(-c3ccc(F)cc3)nn12,inactive: 2.42%
4,COc1ccc(CCNC(=O)Cn2c(C)c3cnn(-c4ccccc4)c(=O)c3c2C)cc1OC,inactive: 1.14%
5,CC1=C(C(N)=O)C(c2ccc(C(C)C)cc2)n2nc(SCc3ccccc3F)nc2N1 (centres undefined),inactive: -0.231%
6,CCn1cc2nc(SCc3cccc(C(F)(F)F)c3)n(CCc3ccccc3)c(=O)c2n1,inactive: 29.4%
7,Fc1ccc(-n2ncc3c(Nc4ccc(Oc5ccc(Cl)cc5)cc4)ncnc32)cc1,inactive: -0.0523%
8,COc1ccc(-c2[nH]c(-c3ccc(F)cc3)nc2SCC(=O)Nc2ccc(OC)c(OC)c2)cc1,inactive: -10.9%
9,Cc1ccccc1C(=O)Nc1ccccc1C(=O)OCc1cc(=O)n2nc(C3CC3)sc2n1,inactive: 8.9%
10,Cc1ccc(NC(=O)CN2C(=O)C(c3ccccc3)=NC2(C)C)cc1C,inactive: -1.91%
11,CCc1ccc(-n2c(=O)c3cccnc3n2CC(=O)N(CC)c2cccc(C)c2)cc1,inactive: 0.0649%
12,Cc1ccc(-n2ncc3c(NCCc4ccccc4)ncnc32)cc1,inactive: -1.44%
13,Cc1cc2oc(C(=O)N(Cc3ccccc3)C3CCS(=O)(=O)C3)cc(=O)c2cc1C (centres undefined),inactive: -25.1%
14,CCOc1ccc(S(=O)(=O)n2nc(C)c(S(=O)(=O)N3CCCCCC3)c2C)cc1,inactive: 1.15%
15,CN1CCN(c2ncc3c(n2)CCN(Cc2ccccc2Cl)C3)CC1,inactive: 2.83%
16,Cc1c2cnn(-c3ccccc3)c(=O)c2c(C)n1CC(=O)NCc1ccc(Cl)cc1,inactive: 11.4%
17,CCc1ccc(NC(=O)CSc2nnc(-c3nonc3NC(C)=O)n2-c2ccccc2)cc1,inactive: -10.9%
18,COc1ccc2c(C)cc(SCC(=O)Nc3nsc(-c4ccc(C(C)(C)C)cc4)n3)nc2c1,inactive: 2.99%
19,COc1cccc(Cn2c(SCc3ccc(C(=O)N4CCC(C)CC4)cc3)nc3ccncc32)c1,inactive: -15.6%
20,CCC(Cc1ccccc1)NC(=O)c1csc2c1CCCCC2 (centres undefined),inactive: 1.63%
21,COc1ccccc1NC(=O)C1=C(C)Nc2ncnn2C1c1ccc[nH]1 (centres undefined),inactive: 4.55%
22,CCN(CC)C(=O)Cn1c(SCC(=O)Nc2ccc(C)c(C)c2)nc2ccccc21,inactive: 6.19%
